# Results taken from publication PMC4336329 (PLoS ONE, 2015).
# Hit rate of the full screen: of about 310,000 compounds, about 14,000 (4.5%) showed an effect of 50% or more. Effects have a minus sign here. Some of the results follow.
# Biological target: human ether-à-go-go-related gene (hERG) potassium channel (human, UniProt Q12809)
# Assay: primary screen, population patch clamp on CHO cells stably expressing hERG
# 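Further: peak tail current of the secondary pulse compared with the same well before compound.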
# Chain of human ether-à-go-go-related gene (hERG) potassium channel (Q12809 whole entry, looked up): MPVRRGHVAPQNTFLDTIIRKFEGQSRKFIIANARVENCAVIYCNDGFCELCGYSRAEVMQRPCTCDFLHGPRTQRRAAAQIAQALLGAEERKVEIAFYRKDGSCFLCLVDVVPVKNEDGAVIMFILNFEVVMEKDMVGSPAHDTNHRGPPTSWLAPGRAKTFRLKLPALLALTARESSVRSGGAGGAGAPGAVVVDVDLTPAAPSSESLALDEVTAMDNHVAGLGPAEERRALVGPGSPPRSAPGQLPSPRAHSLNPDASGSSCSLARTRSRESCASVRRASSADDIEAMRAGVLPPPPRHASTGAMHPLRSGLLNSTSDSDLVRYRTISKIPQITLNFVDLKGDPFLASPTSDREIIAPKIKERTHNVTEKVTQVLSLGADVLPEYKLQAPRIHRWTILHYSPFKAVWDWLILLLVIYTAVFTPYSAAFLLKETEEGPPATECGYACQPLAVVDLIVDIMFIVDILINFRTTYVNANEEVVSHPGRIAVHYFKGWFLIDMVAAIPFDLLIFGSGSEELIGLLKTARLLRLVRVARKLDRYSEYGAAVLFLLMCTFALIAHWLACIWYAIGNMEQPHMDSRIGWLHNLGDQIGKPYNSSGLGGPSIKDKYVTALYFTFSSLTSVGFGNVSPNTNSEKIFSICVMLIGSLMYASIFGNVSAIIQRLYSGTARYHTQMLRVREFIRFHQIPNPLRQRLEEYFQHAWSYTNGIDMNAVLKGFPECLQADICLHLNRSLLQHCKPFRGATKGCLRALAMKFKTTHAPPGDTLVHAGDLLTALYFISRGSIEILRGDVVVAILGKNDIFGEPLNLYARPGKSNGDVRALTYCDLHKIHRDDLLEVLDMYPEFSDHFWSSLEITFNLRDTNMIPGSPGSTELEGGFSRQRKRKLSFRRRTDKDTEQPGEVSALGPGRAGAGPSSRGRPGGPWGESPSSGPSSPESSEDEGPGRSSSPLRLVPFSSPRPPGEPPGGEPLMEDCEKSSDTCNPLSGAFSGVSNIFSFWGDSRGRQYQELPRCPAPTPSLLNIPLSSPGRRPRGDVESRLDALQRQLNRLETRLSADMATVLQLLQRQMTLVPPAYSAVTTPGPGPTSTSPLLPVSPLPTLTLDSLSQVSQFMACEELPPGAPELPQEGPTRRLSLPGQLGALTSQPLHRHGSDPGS
row,Structure (SMILES),"hERG current change (%, negative = inhibition) at 10uM"
1,CC(C)C(C(=O)Nc1ccc2c(c1)OCCO2)N1C(=O)c2ccccc2C1=O (stereo not drawn),-3.49%
2,Cc1c(N2C(=O)CS/C2=N\N=C\c2ccccc2O)c(=O)n(-c2ccccc2)n1C,-4.5%
3,Cc1cc(NC(=O)c2ccc(Cl)cc2)n(-c2ccccc2)n1,-1.41%
4,O=C(Cn1cc(C(F)(F)F)ccc1=O)NCCc1ccc(Cl)cc1Cl,2.44%
5,CCOC(=O)NC(=O)CSc1ccccn1,18.2%
6,COc1ccc(OCC(=O)Nc2c(C)ccc3nsnc23)cc1,-10.9%
7,COCc1nnc(NC(=O)c2sc3ccccc3c2Cl)s1,2.52%
8,Oc1ccccc1C=NCCCCCCN=Cc1ccccc1O,9.95%
9,COc1ccc(NC(=O)CSc2nnc3n2CCCCC3)cc1,8.17%
10,O=S(=O)(O)c1cccc(N=Nc2c(O)ccc3ccccc23)c1,16.4%
11,COc1ccc(S(=O)(=O)Nc2cc3c4c(c2)C(C)C(=O)N4CCC3)cc1OC (stereo not drawn),6.27%
12,O=C(O)c1cccc(-n2c(/C=C/c3ccccc3)nc3ccccc3c2=O)c1,12.8%
13,COc1cc(OC)cc(-c2oc3cccnc3c2C#CCCO)c1,11.5%
14,CCc1cccc(NC(=O)c2ccc(CNc3c(N4CCCC4)c(=O)c3=O)cc2)c1,11.8%
15,O=C(CSc1ncn[nH]1)Nc1ccc2c(c1)CCC2,-1.56%
16,COc1ccc(C(=O)NC2CCN(C(=S)Nc3ccccc3C)CC2)cc1,12.7%
17,CCN(CC)C(=O)c1[nH]cnc1C(=O)Nc1ccc(C)cc1,2.75%
18,O=C(Nc1ccc(Cl)cc1)C(c1ccccc1)N(CCO)CCO (stereo not drawn),-12.5%
19,Cn1nccc1C(=O)Nc1ccc(S(=O)(=O)N2CCCC2)cc1,10.5%
20,CC(C(=O)NCC1CCCCC1)N1CCN(S(=O)(=O)/C=C/c2ccccc2)CC1 (stereo not drawn),-26.7%
21,Cc1ccc(OCC(=O)Nc2cccc(S(=O)(=O)N3CCOCC3)c2)c([N+](=O)[O-])n1,-7.93%
22,CCC1(c2ccccc2)NC(=O)N(CC(=O)NCc2ccncc2)C1=O (stereo not drawn),18.5%

row,Structure (SMILES),"hERG current change (%, negative = inhibition) at 10uM"
1,O=C(Nc1ccc(Cl)cn1)Nc1ccccc1Cl,6.16%
2,CN(CC(=O)Nc1ccccc1Br)C(=O)c1cc([N+](=O)[O-])ccc1N1CCOCC1,-10.6%
3,Cl.O=C(O)c1cccc(Nc2nc(C(F)(F)F)nc3ccccc23)c1,40.7%
4,CCCC(=O)OCC[N+](C)(C)C.[Cl-],6.5%
5,Cc1c(Cl)cccc1NC(=O)c1ccc(OCC(=O)NCc2ccccc2)cc1,15.5%
6,Cc1c(Nc2cc(N3CCCCCC3)c3nonc3c2[N+](=O)[O-])c(=O)n(-c2ccccc2)n1C,-31.1%
7,Cc1cc(Nc2cccc(Cl)c2)c2ccccc2n1,-68.8%
8,CC(NCc1cccc(OCc2ccccc2)c1)C(O)c1ccccc1.Cl (stereo not drawn),-50.9%
9,CCOC(=O)Cc1nc2nc(C)cc(C)n2n1,3.67%
10,Cc1ccc(OCC(O)CN2CCN(Cc3ccc4c(c3)OCO4)CC2)cc1C.Cl (stereo not drawn),-61.1%
11,CC(C)(C)c1ccc(S(=O)(=O)NCC(=O)Nc2sc3c(c2C(N)=O)CCCC3)cc1,19.2%
12,CC(NC(=O)c1ccc(Cn2cc([N+](=O)[O-])cn2)cc1)c1ccccc1 (stereo not drawn),-13.5%
13,COc1ccc(Cl)cc1NC(=O)CN(C)C(=O)c1ccc(C)s1,-5.14%
14,Cc1nc(N2CCCCC2)c2c(C)c(C(=O)Nc3ccccc3C(F)(F)F)sc2n1,4.43%
15,CC(=O)NC(=S)NNC(=O)COc1ccc([N+](=O)[O-])cc1,10%
16,COc1ccc(C(CC(=O)Nc2ncccc2C)N2Cc3ccccc3C2=O)cc1 (stereo not drawn),-1.3%
17,O=C1NC(=O)C(CC(=O)N(Cc2ccco2)C2(C(=O)NC3CCCCC3)CCCCC2)N1 (stereo not drawn),-0.128%
18,O=C(NNC(=O)c1cc(Cl)ccc1O)c1cccs1,18.4%
19,COc1cccc(C2=NOC(C(=O)N3CCN(C(=O)c4ccco4)CC3)C2)c1 (stereo not drawn),-40.1%
20,Cc1ccc(NC(=O)c2ccc(S(=O)(=O)NCc3cccnc3)cc2)cc1C,-18.7%
21,CCC(=O)NNc1ncnc2c1cnn2-c1ccccc1,28.9%
22,COCCNc1nc(Cl)c(C#N)s1,9.02%

row,Structure (SMILES),"hERG current change (%, negative = inhibition) at 10uM"
1,CCOC(=O)c1c(NC(=S)Nc2ccccc2)sc2c1CCN(CCc1ccccc1)C2,-64.1%
2,O=C(Nc1ccc(S(=O)(=O)N2CCCC2)cc1)C1CC(=O)N(CCc2ccc(F)cc2)C1 (stereo not drawn),0.572%
3,Cn1c(=O)c2c(nc(CN3CCN(Cc4ccccc4)CC3)n2Cc2ccc(F)cc2)n(C)c1=O,-67.2%
4,O=C1NC(Nc2nc3ccccc3s2)(C(F)(F)F)C(=O)N1C1CCCCC1 (stereo not drawn),-6.17%
5,CC(OC(=O)c1cccc([N+](=O)[O-])c1)C(=O)N1CCc2ccccc21 (stereo not drawn),-24%
6,Cc1nn(-c2ccccc2)c(Cl)c1C(=O)Nc1nnc(C2CCCC2)s1,-4.98%
7,C/C(CC(=O)NC(C)(C)C)=N\NC(=O)c1ccccc1N,4.06%
8,Cc1nn(C)cc1/C=C1\CCC/C(=C\c2cn(C)nc2C)C1=O,10.5%
9,O=C(O)CC12CC3CC(C1)CC(n1ncc(NCc4ccc5c(c4)OCO5)c(Cl)c1=O)(C3)C2,13.8%
10,CCc1sc(C(=O)NCc2ccccc2)cc1C,-9.06%
11,CCN(CC)S(=O)(=O)c1ccc(NC(=O)C2CCCN(C(=O)c3ccc(Cl)cc3)C2)cc1 (stereo not drawn),4.37%
12,O=C(N/N=C/c1ccc(-c2ccc(Cl)c(C(=O)O)c2)o1)c1cc2c(ccc3ccccc32)o1,9.63%
13,COc1cc(/C=N/Nc2ccc(Cl)c(C(=O)O)c2)ccc1OCC(=O)N1C(C)CCCC1C (stereo not drawn),16.5%
14,CCOC(=O)c1c(-c2ccc(C)cc2)csc1NC(=O)c1ccc(N2C(=O)CCC2=O)cc1,-0.372%
15,CNC(=O)c1ccc(Nc2nnc(C)c3ccccc23)cc1,4.12%
16,COc1ccc(C(=O)O)cc1NCc1cccnc1,21.8%
17,CC(C)NS(=O)(=O)c1ccc(OCC(=O)Nc2cccc3ccccc23)cc1,1.75%
18,CCOCCCNC(=O)c1c(N)n(-c2ccc(S(N)(=O)=O)cc2)c2nc3ccccc3nc12,9.67%
19,NC(=O)c1ncc(C(F)(F)F)cc1Oc1ccc(F)cc1,11%
20,CC(=O)Nc1ccc(S(=O)(=O)Oc2ccc(/C=C3\SC(N)=NC3=O)cc2)cc1,27%
21,O=C(NC(=S)Nc1ccc(CN2CCCCC2)cc1)c1cccc(OCc2ccccc2)c1,-5.83%
22,CCc1cc2c(Sc3nc4ccccc4s3)ncnc2s1,16.9%

row,Structure (SMILES),"hERG current change (%, negative = inhibition) at 10uM"
1,O=C(CN1c2cccc3cccc(c23)S1(=O)=O)Nc1ccc(S(=O)(=O)N2CCOCC2)cc1,17%
2,COCc1nnc(NC(=O)CSc2ccc(C)cc2)s1,12.9%
3,Cc1ccc([N+](=O)[O-])cc1NC(=O)CN1CCCCC1,-11.7%
4,COc1ccccc1NC(=S)N(Cc1ccco1)Cc1cc2cc(C)ccc2[nH]c1=O,3.67%
5,CCOc1ccc(C(=O)NCCC(=O)NCCCC(=O)O)cc1,6.08%
6,CCOC(=O)C1(Cc2cccc(OC)c2)CCN(Cc2ccon2)CC1,1.68%
7,COc1ccccc1NC(=O)CCc1nc(-c2ccccc2F)no1,-4.66%
8,Nc1nonc1-n1nnc(C(=O)N/N=C/c2cc(Br)ccc2O)c1CNc1ccccc1,20.7%
9,CN(C)c1ccc(-n2cccc2/C=C2/SC(=Nc3ccc(F)cc3)NC2=O)cc1,11.3%
10,CCOc1ccc(N2CC(C(=O)NCCc3c[nH]c4ccc(C)cc34)CC2=O)cc1 (stereo not drawn),-36.5%
11,Cc1ccc(C(=O)N/C(=C/c2cccs2)C(=O)NCCCn2ccnc2)cc1,-71.9%
12,COc1cccc(CN2CCCCC2c2cccnc2)c1 (stereo not drawn),3.01%
13,CCC(SC1=NCCS1)C(=O)Nc1ccc(S(N)(=O)=O)cc1 (stereo not drawn),-1.65%
14,CC1=CC(c2ccccc2)n2nc(NC(=O)CCCC(=O)O)nc2N1 (stereo not drawn),26.3%
15,CCOC(=O)CSc1nnc(CNC(=O)c2ccco2)n1C,9.19%
16,N#CC(C#N)=Cc1cccnc1,10.2%
17,CC(Oc1ccc(Cl)cc1Cl)c1ccnc(N)n1 (stereo not drawn),15.3%
18,COc1cccc(C(=O)NC(=S)Nc2ccc3oc(=O)ccc3c2)c1,-4.57%
19,S=C(Nc1ccc2c(c1)OCO2)Nc1ccccc1Cl,2.65%
20,N#Cc1nc(-c2cccc(Cl)c2)oc1NCc1cccnc1,-38.3%
21,COc1ccc(OC)c(N(CC(=O)NCc2ccccc2)S(=O)(=O)c2ccc(OC)c(OC)c2)c1,18.3%
